# Experimental data from a collection of fitness landscapes (doi:10.1126/science.1257360).
# Some of the results follow.
# B1: PhoQ; a variant is named by its letters at X, in order, P23837 (parent)
# chain: MKKLLRLFFPLSLRVRFLLATAAVVLVLSLAYGMVALIGYSVSFDKTTFRLLRGESNLFYTLAKWENNKLHVELPENIDKQSPTMTLIYDENGQLLWAQRDVPWLMKMIQPDWLKSNGFHEIEADVNDTSLLLSGDHSIQQQLQEVREDDDDAEMTHSVAVNVYPATSRMPKLTIVVVDTIPVELKSSYMVWSWFIYVLSANLLLVIPLLWVAAWWSLRPIEALAKEVRELEEHNRELLNPATTRELTSLVRNLNRLLKSERERYDKYRTTLTDLTHSLKTPLXXLQXXLRSLRSEKMSVSDAEPVMLEQISRISQQIGYYLHRASMRGGTLLSRELHPVAPLLDNLTSALNKVYQRKGVNISLDISPEISFVGEQNDFVEVMGNVLDNACKYCLEFVEISARQTDEHLYIVVEDDGPGIPLSKREVIFDRGQRVDTLRPGQGVGLAVAREITEQYEGKIVAGESMLGGARMEVIFGRQHSAPKDE
# Variants of: B1
# Assay: enrichment ratio after two sorts for PhoP signalling (ratio (wild type AVST 3.29)); higher = more functional
# Conditions: with PhoP (E. coli)
row,Variant,enrichment ratio
1,VAHK,≤ 0.25
2,DRTA,≤ 0.25
3,KMCG,≤ 0.25
4,MDKY,≤ 0.25
5,PKVQ,≤ 0.25
6,RFMN,≤ 0.25
7,YKSH,≤ 0.25
8,YVCV,0.279
9,HYKA,≤ 0.25
10,DGNM,≤ 0.25
11,PTGI,≤ 0.25
12,MMEP,≤ 0.25
13,PSLM,0.728
14,YRIG,≤ 0.25
15,PTHK,≤ 0.25
16,CLFA,≤ 0.25
17,VKDE,≤ 0.25
18,IEAN,≤ 0.25
19,TVKF,≤ 0.25
20,IGWH,3.3
21,MWFV,≤ 0.25
22,TDHM,≤ 0.25
23,WCPP,≤ 0.25
24,EIYW,≤ 0.25
25,PMHP,≤ 0.25
26,ILFD,≤ 0.25

row,Variant,enrichment ratio
1,HLHW,≤ 0.25
2,SEKI,≤ 0.25
3,KAPR,≤ 0.25
4,AFKL,≤ 0.25
5,SVQR,1.37
6,NLPM,≤ 0.25
7,GVVN,≤ 0.25
8,FGYE,≤ 0.25
9,GSCN,≤ 0.25
10,VCIF,≤ 0.25
11,LLAV,≤ 0.25
12,QNPA,≤ 0.25
13,THDK,≤ 0.25
14,PWGT,≤ 0.25
15,LWEY,≤ 0.25
16,VAYN,≤ 0.25
17,TTYQ,11.4
18,SKNQ,≤ 0.25
19,PDLF,≤ 0.25
20,DHCC,≤ 0.25
21,RHPL,≤ 0.25
22,EKSA,≤ 0.25
23,FQHC,≤ 0.25
24,MESK,≤ 0.25
25,LFPH,≤ 0.25
26,SHPK,≤ 0.25

row,Variant,enrichment ratio
1,HWYM,≤ 0.25
2,MQSL,≤ 0.25
3,VKSV,≤ 0.25
4,LTSH,≤ 0.25
5,FGHH,≤ 0.25
6,IVMF,≤ 0.25
7,VCEN,≤ 0.25
8,GHFC,≤ 0.25
9,KDGE,≤ 0.25
10,TYRT,≤ 0.25
11,FCEY,≤ 0.25
12,YTNQ,≤ 0.25
13,NILM,≤ 0.25
14,MCWY,9.91
15,DDYL,≤ 0.25
16,AHTF,≤ 0.25
17,ETRW,≤ 0.25
18,MNRA,≤ 0.25
19,DIWQ,≤ 0.25
20,LPWI,≤ 0.25
21,VECP,≤ 0.25
22,RTAN,≤ 0.25
23,STHG,≤ 0.25
24,LKHE,≤ 0.25
25,TLRL,≤ 0.25
26,KKTF,≤ 0.25

row,Variant,enrichment ratio
1,YQKC,≤ 0.25
2,FICL,11
3,QRIK,≤ 0.25
4,FFCR,≤ 0.25
5,DQSL,≤ 0.25
6,CQLT,≤ 0.25
7,LVLQ,≤ 0.25
8,YGNE,≤ 0.25
9,VLTQ,≤ 0.25
10,FICD,≤ 0.25
11,NGRF,≤ 0.25
12,WNSV,≤ 0.25
13,RNMM,≤ 0.25
14,WQPE,≤ 0.25
15,PQTY,≤ 0.25
16,GTPA,≤ 0.25
17,IIVI,≤ 0.25
18,MTEF,≤ 0.25
19,DRIV,≤ 0.25
20,SVVT,0.568
21,EMID,≤ 0.25
22,PSMV,≤ 0.25
23,KFWQ,≤ 0.25
24,KYQW,≤ 0.25
25,MYWV,≤ 0.25
26,PTRS,≤ 0.25

row,Variant,enrichment ratio
1,MGSF,≤ 0.25
2,ASDP,≤ 0.25
3,VTDS,≤ 0.25
4,ITIN,≤ 0.25
5,LCDV,≤ 0.25
6,FIKL,≤ 0.25
7,DKGF,≤ 0.25
8,SHQI,≤ 0.25
9,PEMI,≤ 0.25
10,KVPS,≤ 0.25
11,VWAP,≤ 0.25
12,LFLT,≤ 0.25
13,FLTV,≤ 0.25
14,WADI,≤ 0.25
15,DLFH,≤ 0.25
16,THSE,3.83
17,FPTG,≤ 0.25
18,AKFK,≤ 0.25
19,KSNI,≤ 0.25
20,DKSP,≤ 0.25
21,IDDC,≤ 0.25
22,VSET,≤ 0.25
23,YHKH,≤ 0.25
24,RHLC,≤ 0.25
25,WYFL,≤ 0.25
26,DKLA,≤ 0.25

row,Variant,enrichment ratio
1,FDYE,≤ 0.25
2,ATNY,5.32
3,QTMF,≤ 0.25
4,WKMM,≤ 0.25
5,KPHI,≤ 0.25
6,GEMH,≤ 0.25
7,YQCF,≤ 0.25
8,SVLH,4.52
9,WARP,≤ 0.25
10,AYML,≤ 0.25
11,NMQQ,≤ 0.25
12,KGPW,≤ 0.25
13,FGSE,≤ 0.25
14,NEQV,≤ 0.25
15,QRYH,≤ 0.25
16,TMSM,7.07
17,IAED,≤ 0.25
18,STIA,6.94
19,FCCE,≤ 0.25
20,KTKH,≤ 0.25
21,TITH,1.26
22,MSSG,0.257
23,FCPY,≤ 0.25
